Source: the antibiotic and cytotoxicity screens of Wong et al. (2023)
The list shows a part of the results.

What was measured:
HSkMC = human skeletal muscle cells; test: cytotoxicity call (relative viability < 0.9); settings: 10 µM
HepG2 = test: cytotoxicity call (relative viability < 0.9); settings: 10 µM
S. aureus RN4220 = test: growth inhibition call (relative growth <= 0.2); settings: 50 µM

Compound | cytotoxicity call (HSkMC) | cytotoxicity call (HepG2) | growth inhibition call (S. aureus RN4220)
CNC(=O)Oc1cccc2ccccc12 | inactive | inactive | inactive
CNCC(=O)c1ccc(O)c(O)c1.Cl | inactive | inactive | inactive
NCCc1c[nH]c2ccccc12 | inactive | inactive | inactive
CC(C)=CCC[C@]1(C)C=Cc2c(O)c3c(c(CC=C(C)C)c2O1)O[C@]12[C@H](C[C@@H]4C[C@H]1C(C)(C)O[C@]2(C/C=C(/C)C(=O)O)[C@@H]4O)C3=O | inactive | inactive | inactive
CCCCC(=O)N1C[C@@H]2CCNC[C@@H]21 | inactive | inactive | inactive
c1ccc2sc(C3(N4CCCC4)CCCCC3)cc2c1 | inactive | inactive | inactive
O=c1cccc2n1CC1CNCC2C1 (configuration not stated) | inactive | inactive | inactive
CCN(CC)CCOC(=O)C(O)(c1ccccc1)c1ccccc1.Cl | inactive | inactive | inactive
CC1=NCCc2c1[nH]c1cc(O)ccc21.Cl.O.O | inactive | active | inactive
Cn1ncnc2c(=O)n(C)c(=O)nc1-2 | active | active | inactive
CCC(C(=O)[O-])C1CCC(C)C(C(C)C(O)C(C)C(=O)C(CC)C2OC3(C=CC(O)C4(CCC(C)(C5CCC(O)(CC)C(C)O5)O4)O3)C(C)CC2C)O1.[Na+] (configuration not stated) | inactive | active | active
Cc1nccc2c1[nH]c1ccccc12 | inactive | active | inactive
C[C@@H]1CN([C@H](C)CO)C(=O)CCCn2cc(nn2)CO[C@H]1CN(C)C(=O)Oc1cccc2ccccc12 | inactive | inactive | inactive
C[C@@H]1[C@H](O)[C@@H](C)/C=C\C=C/CC\C=C/C=C\C=C/C=C\[C@H](O[C@@H]2O[C@H](C)[C@@H](O)[C@H](N)[C@@H]2O)C[C@@H]2O[C@](O)(C[C@@H](O)[C@H](O)CC[C@@H](O)C[C@@H](O)C[C@@H](O)CC(=O)O[C@H]1C)C[C@H](O)[C@H]2C(=O)O | inactive | inactive | inactive
CC(=O)N[C@H]1CCSC1=O | inactive | inactive | inactive
O=C(NC(O)C(Cl)(Cl)Cl)NC(O)C(Cl)(Cl)Cl (configuration not stated) | inactive | inactive | inactive
C[C@H]1CN([C@@H](C)CO)C(=O)CCCn2cc(nn2)CO[C@@H]1CN(C)C(=O)Oc1ccc2ccccc2c1 | inactive | inactive | inactive
c1ccc2cc3c(cc2c1)-c1cccc2cccc-3c12 | inactive | active | inactive
N[C@@H]1C[C@H]1c1ccccc1 | inactive | inactive | inactive
CN1CCCN(Cc2ccc(CN)cc2)CC1 | inactive | inactive | inactive

Compound | cytotoxicity call (HSkMC) | cytotoxicity call (HepG2) | growth inhibition call (S. aureus RN4220)
Cc1nc([N+](=O)[O-])c(N2CCNCC2)[nH]1 | inactive | inactive | inactive
O=C(O)CC[N+](=O)[O-] | inactive | inactive | inactive
CC(C)[C@@H](Br)C(=O)NC(N)=O | inactive | inactive | inactive
COc1c2c(cc3c1OCO3)CC[N+](C)=C2.[Cl-] | inactive | inactive | inactive
Cc1cnc(C(=O)N2C[C@H]3CNC[C@H]3C2)cn1 | inactive | inactive | inactive
CCC(CC)C(=O)N[C@@H]1[C@@H]2CNC[C@@H]21 | inactive | inactive | inactive
CN(C)NC(=O)CCC(=O)O | inactive | inactive | inactive
CC(C)c1cccc(C(C)C)c1O | inactive | active | inactive
O[C@H]1CNC[C@@H]1N1CCCCC1 | inactive | inactive | inactive
NNCc1ccccc1 | inactive | inactive | inactive
NC[C@@H](CS(=O)(=O)O)c1ccc(Cl)cc1 | inactive | inactive | inactive
COc1cccc2c1cc([N+](=O)[O-])c1c(C(=O)O)cc3c(c12)OCO3 | inactive | inactive | inactive
N#Cc1cccnc1 | inactive | inactive | inactive
CN1CCN(C(=O)OC2c3nccnc3C(=O)N2c2ccc(Cl)cn2)CC1 (configuration not stated) | inactive | inactive | inactive
Cl.NCCc1ccccc1 | inactive | inactive | inactive
CCCCC[C@H]1C(=O)O[C@H](C)[C@H](NC(=O)c2cccc(NC=O)c2O)C(=O)O[C@@H](C)[C@@H]1OC(=O)CC(C)C | inactive | active | inactive
NCC1(c2c(F)cc(F)cc2F)CC1 | inactive | inactive | inactive
COc1ccc(C2(CN)CCOCC2)cc1 | inactive | inactive | inactive
Cc1noc(C)c1C(=O)N1C[C@@H]2CCN[C@@H]2C1 | inactive | inactive | inactive
